From patent US20250127918A1, “SITE-SELECTIVE CONJUGATION OF A PHARMACEUTICAL AGENT TO AN ANTIBODY USING AN AFFINITY PEPTIDE” (priority 2023, published 2025)

How the values were obtained:
Trastuzumab [1] = target: T1, Trastuzumab (Homo sapiens, UniProt P01857, D239E/L241M); test: Bioconjugation handle / GLP1 transfer to trastuzumab, analyzed by Q-ToF LC-MS; format: biochemical; details: for Modifications incorporated into the heavy chain of Tmab: hIgG1 trastuzumab (1 eq.), peptide 20 eq., after 24 h
T1 construct: purchased Syd Labs Inc; MedChemExpress LLC; Bio X Cell
Experimental: The conversion rate for each reaction was calculated by one of the following methods. Determination by LC-MS: Reported yields based on LC-MS spectra were determined by extracting the total ion current (TIC) spectra of all protein-containing species in the chromatogram utilizing Agilent MassHunter 6.0 software with BioConfirm package. These extracted chromatograms were deconvoluted utilizing a maximum entropy algorithm and abundance of each species determined using total ion count.
A reaction solution corresponding to 9.0 μg of IgG was taken into a PCR tube and diluted with Tris buffer (100 mM, pH 8.1) to a final volume of 6 μL. […] Afterward, DTT (200 mM in water, 2 μL) was added, and the mixture was further incubated at 37° C. for 1 hour. Finally, the solution was diluted to a volume of 40 μL with a mixture of water and acetonitrile (95:5), and 8 μL of the diluted solution was injected into LC-MS.
Reactions were performed on a 20 μL scale using 0.2 mL PCR tubes (FIG. 61). First, the electrophile-attached Z33 peptide reagent was dissolved in water to prepare a 2 mg/mL solution. Trastuzumab (MedChemExpress LLC. or Bio X Cell), electrophile-attached Z33 peptide reagent (2 mg/mL), and buffer were added to achieve final concentrations of 10 μM, 200 μM, and values listed in the following table, respectively. If the HEPES was used as a buffer, NaCl solution (4M, 1 uL) was added to the reaction mixture. […] The resulting reaction solution was quenched with a 100 mM glycine buffer of 100 mM Tris buffer and analyzed by LC-MS. Sample preparation for LC-MS analysis was performed in the same manner previously described. […] Therefore, a post-processing step was implemented to remove electrophiles using an Amicon® filter. The reaction mixture was diluted to 200 μL with citrate buffer (100 mM, pH 2.7) and filtered through an Amicon® filter (0.5 mL, 50KMWCO) at 14000 rcf for 7 minutes. After filtration, 400 μL of Tris buffer (100 mM, pH 8.1) was added and centrifuged again. Finally, the remaining solution (roughly 20 μL) on the Amicon® filter was transferred to a microcentrifuge tube, and the Amicon® filter was washed twice with 10 μL of Tris buffer (100 mM, pH 8.1). LC-MS results of electrophile-attached Z33E20C/Hcy reagents are shown in FIG. 51 to FIG. 52E and in Table 7. Unless otherwise provided, “E^20C” refers to that the residue of the 20th amino acid of Z33 (which is an E) is replaced with a substituted or unsubstituted residue of cysteine. Unless otherwise provided, “E20Hcy” refers to that the residue of the 20th amino acid of Z33 (which is an E) is replaced with a substituted or unsubstituted residue of homocysteine (“Hcy”).
The reaction was performed on a 2.1 mL scale using a 1.5 mL microcentrifuge tube. […] The reaction mixture was diluted to 4 mL with citrate buffer (100 mM, pH 2.7) and filtered through an Amicon® filter (4 mL, 50KMWCO) at 3220 rcf for 10 minutes. After filtration, 2 mL of citrate buffer (100 mM, pH 2.7) was added and centrifuged twice, followed by centrifugation with 2 mL of Tris buffer (50 mM, pH 8.0) three times (total of 6 centrifugations). The remaining solution on the Amicon® filter was transferred to a microcentrifuge tube, and the Amicon® filter was washed twice with 40 μL of Tris buffer (100 mM, pH 8.1).
Reactions were performed on a 20 μL scale using 0.2 mL PCR tubes (FIG. 61). First, the electrophile-attached Z33 peptide reagent was dissolved in water to prepare a 2 mg/mL solution. Trastuzumab (Bio X Cell), electrophile-attached Z33 peptide reagent (2 mg/mL), HEPES buffer (pH 8.5), and NaCl solution were added to achieve final concentrations of 10 uM, 200 μM, 100 mM, and 200 mM. […] The resulting reaction solution was quenched with a 100 mM Tris buffer and analyzed by LC-MS (FIG. 53, Table 8).

db/db mice = details: cited from earlier work
[2] = humans, cited from earlier work
mouse IgG [3] = test: Azido transfer to mouse IgG in mouse serum (E1/E2 sandwich ELISA); format: biochemical; details: after 2 h of incubation in mouse sera
mouse IgG [4] = test: Azido transfer to mouse IgG in vivo (E1/E2 ELISA of serum); details: subcutaneous injection of 30 mg/kg, WT Swiss mice, serum at 24 h, listed as N3-3-I
Experimental: To evaluate the in vivo azido transfer in mice, two groups of mice were injected subcutaneously or intraperitoneally with the IgG-binder peptides. Mice were sacrificed at 24 hours post-injection, and the blood was collected for ELISA analysis. Sandwich ELISA assays. […] The percentage azido transfer was also compared with intraperitoneal injection of 10 mg/kg Z33-E20Hcy, intraperitoneal injection of 30 mg/kg of Z33-E20Hcy, subcutaneous injection of 30 mg/kg Z33-E20Hcy, and intraperitoneal injection of 30 mg/kg pegylated-Z33-E20Hcy (FIG. 2D).
Two sandwich ELISA assays have been developed in-house, one for the detection of the azido moiety conjugated mouse IgG (mIgG, E1), the other one for the detection of the whole mIgGs (modified and unmodified) in the sample (E2). Both E1 and E2 were run simultaneously on a same plate, using the same initial stock sample, and were processed in parallel at the same time for every steps. […] Absorbances were measured at 450 nm and 540 nm (A0=A450 nm-A540 nm) using a Spark microplate reader (Tecan, USA). The background noise (Ablank) from the serum was subtracted to get the final absorbance of the sample (Asample=A0-Ablank). The ratio Asample (E1)/Asample (E2) was calculated to estimate the percentage of azido transfer on the total amount of IgG in the sample. […]

Trastuzumab [5] = target: T1, Trastuzumab; test: Bioconjugation handle / GLP1 transfer to trastuzumab, analyzed by Q-ToF LC-MS; format: biochemical; details: 10 equivalents
Trastuzumab [6] = target: T1, Trastuzumab; test: ADC preparation with MMAE transfer reagent (SDS-PAGE); format: biochemical; details: MMAE transfer to Tmab in vitro
Experimental: Reactions were performed on a 20 μL scale using 0.2 mL PCR tubes. […] The final concentrations of HEPES buffer (pH 8.5), NaCl solution, and PBS buffer were 100 mM, 200 mM and 1×, respectively. Tmab (Bio X Cell, 9.2 mg/mL, 1.61 μL) was then added to the reaction solution and incubated at room temperature or 37° C. for hours. The resulting reaction solution was quenched with 100 mM Tris buffer and analyzed by SDS-PAGE.
The reaction mixture corresponding to 3.5 μg of IgG was taken to a PCR tube, and diluted with Tris buffer (100 mM, pH 8.1) to a final volume of 3 μL. Then, Laemmli sample buffer (BIO-RAD, 2×+5% 2-mercaptoethanol, 3 μL) was added, and the mixture was heated at 70° C. for 5 min. After returning the reaction solution to room temperature, 2 μL was loaded onto an SDS-Gel. Subsequently, electrophoresis, washing, staining, and analysis were performed using the methods described in General Information Section.

[7] = 100 mM HEPES pH 8.5, room temperature, 24 h

## 5-azido-pentanoyl- FNMQQQRRFYEALHD PNLNHcyEQRNAKIKSI RDD [PEL-09]
Trastuzumab [1]; trastuzumab, LC-MS analysis
  Conversion rate: 97%

## AMG-133
db/db mice; post IP injection of 2 mg/kg
  Persistence of body-weight loss: up to 216 h
db/db mice; post injection
  Duration of blood glucose reduction: up to 144 h
[2]; post SC injection
  Peak of duration: 4 to 7 days
[2]
  Body weight loss maintained after the last dose: up to 120 days
  Half-life: 14 to 16 days

## FNMQQQRRFYEALHD PNLNHcyEQRNAKIKSI RDD [PEL-18]
Trastuzumab [1]; listed as electrophile II
  Modifications incorporated into the heavy chain of Tmab: 47%

## FNMQQQRRFYEALHD PNLNHcyEQRNAKIKSI RDD [PEL-20]
Trastuzumab [1]; listed as electrophile III
  Modifications incorporated into the heavy chain of Tmab: 47%

## FNMQQQRRFYEALHD PNLNHcyEQRNAKIKSI RDD [PEL-22]
Trastuzumab [1]; trastuzumab, 37° C., reagent added in two portions (at 0 and 4 hours)
  Conversion rate: 93%

## FNMQQQRRFYEALHD PNLNHcyEQRNAKIKSI RDD [PEL-32]
Trastuzumab [1]; 10 + 10 equivalents (at the beginning and after 4 hours), 100 mM HEPES pH 8.7, 37, 24 h
  Light chain total conversion: <1%

## H2N-PEG8- FNMQQQRRFYEALHD PNLNHcyEQRNAKIKSI RDD [PEL-30]
Trastuzumab [1]; 10 equivalents, 100 mM HEPES pH 8.5, room temperature, 24 h
  Heavy chain total conversion ratio (+1/+2): 95/5
Trastuzumab [1]; 10 equivalents, PBS, 37, 24 h
  Heavy chain total conversion ratio (+1/+2): 95/5
  Light chain total conversion: 4%
Trastuzumab [1]; trastuzumab, peptides bearing electrophile I (Table 17)
  Conversion: 95%
Mouse IgG [3]
  IgG conversion rate in mouse sera: 49±3%
Mouse IgG [4]
  Azido transfer to mouse IgG in vivo (conversion rate): 37±4%
Trastuzumab [5]; [7]
  Heavy chain total conversion: 95%
  Light chain total conversion: 5%
Trastuzumab [5]; PBS, 37, 24 h
  Heavy chain total conversion: 86%

## MMAE
Trastuzumab [6]
  Heavy chains of the Fc domain of Tmab modified: up to 55%
  Selectivity: 99%
